Results on 96 compounds are retold here after PubChem BioAssay AID485344 (National Center for Advancing Translational Sciences (NCATS), 2010).

In all, about 340,000 compounds went through this assay and about 6,900 (2%) were called active. No stated cut-off is given here; in the data, active means inhibition above about 30%; inactive means below that, where a call was filed. The entries are a selection whose mix differs from that of the whole data set. Entries without a call were filed so in the source.

UniProt P14416, sequence (P14416 whole entry, looked up): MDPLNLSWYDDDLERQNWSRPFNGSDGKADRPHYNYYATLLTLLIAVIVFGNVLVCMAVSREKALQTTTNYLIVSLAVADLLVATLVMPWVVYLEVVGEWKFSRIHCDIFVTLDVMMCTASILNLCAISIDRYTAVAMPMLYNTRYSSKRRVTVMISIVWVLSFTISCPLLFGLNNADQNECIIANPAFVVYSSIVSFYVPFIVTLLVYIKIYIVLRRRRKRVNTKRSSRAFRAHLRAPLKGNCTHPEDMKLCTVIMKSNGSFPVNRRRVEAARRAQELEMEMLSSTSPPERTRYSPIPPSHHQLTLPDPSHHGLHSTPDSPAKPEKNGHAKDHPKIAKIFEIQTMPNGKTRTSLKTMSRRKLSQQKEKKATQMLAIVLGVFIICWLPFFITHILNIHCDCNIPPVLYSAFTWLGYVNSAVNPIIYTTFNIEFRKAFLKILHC

This test addresses D(2) dopamine receptor (Homo sapiens) (UniProt P14416). The test is described as follows: HTS Assay for Allosteric Antagonists of the Human D2 Dopamine Receptor: Primary Screen for Antagonists. Further: 0% is about no effect. The following applies: HEK293 TREx D2 cells, calcium flux, dopamine EC80; at 10 µM; stronger effect = higher value. The essentials:
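HEK293 T-REx D2 cells, tet-induced, calcium dye no-wash. Cpd pintool add, 180 s kinetic, then EC80 DA, 180 s kinetic. Ca flux read.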
For the compound `COC(=O)c1ccccc1NC(=O)CCC(=O)N1CCOc2ccccc21`, the inhibition turned out to be 2.9%.

With `COc1ccccc1Cn1ccn(Cc2c(F)cccc2Cl)c(=O)c1=O`, the inhibition turned out to be 13.8%. For the compound `CCOC(=O)c1c(-c2ccccc2)csc1NC(=O)c1nc(S(=O)(=O)CC)ncc1Cl`, the inhibition was -3.54%. The value for `Cc1oc(C)c2c(=O)cc(-c3ccc4c(c3)OCO4)cc(OC(=O)c3ccccc3Cl)c12` was -12.9%. The figure for `Cc1c(Cl)cccc1NC(=O)Cn1c(=O)nc(-c2ccccc2)c2ccccc21` is 11.6%.

With `CCCNC(=O)C1CCN(c2ncnc3c2nc2n3CCCCC2)CC1`, the inhibition came to 15.5%.

Regarding `O=C(Cn1nc2n(c1=O)-c1ccccc1SC2)N/N=C/c1cccs1`, the inhibition is active: 41.4%. As for `COc1ccc([N+](=O)[O-])cc1NC(=O)CCN1CCN(c2ccccc2OC)CC1`, the inhibition is active: 101%. Regarding `C/C(=N\NC(=O)c1ccc(Br)cc1)c1cccc(NC(=O)c2cccnc2)c1`, the inhibition was active: 32%.

For the compound `CCOC(=O)N1CCc2c(sc(NCc3ccc(OC)c(OC)c3OC)c2C(=O)Nc2ccc(OC)cc2OC)C1`, the inhibition amounted to 20.5%.

Consider `CCCC(=O)NCC(c1ccc2c(c1)OCO2)N1CCN(c2ccccc2)CC1` (stereo unspecified), for which the inhibition stood at 14.6%. `CCCCCOc1ccc(/C=C/C(=O)Nc2sc(C(C)=O)c(C)c2C(=O)OCC)cc1OC`: the inhibition is 6.88%. The value for `CCc1nnc(NC(=O)c2nc(SCc3ccccc3C)ncc2Cl)s1` was 16.7%; that for `CCc1ccc(-n2c(=O)c3sc4ccccc4c3n(Cc3cccc(F)c3)c2=O)cc1` was 19.7%. The value for `Cn1cc(S(=O)(=O)N2CCCCCC2)cc1C(=O)NCc1ccccc1Cl` was -15.6%; that for `CCOc1ccc(-n2c(-c3ccccc3)c(C)n3c4c(=O)n(C)c(=O)n(C)c4nc23)cc1` was -5.47%.

For `COc1ccccc1CNC(=O)c1ccc2nc(-c3ccccc3)c(-c3ccccc3)nc2c1`, the inhibition was 5.74%. As for `CCn1cc(C(=O)NCc2ccc(C)cc2)c(=O)c2cc(S(=O)(=O)N3CCCCCC3)ccc21`, the inhibition was -11.1%. For `CCOc1ccc(CNC(=O)c2ccc(NC(=O)N3CCCCc4ccccc43)cc2)cc1OC`, the inhibition is 7.15%. Regarding `O=C(CCc1nc2cccnc2n1Cc1cccs1)Nc1cccc(Cl)c1`, the inhibition is -6.57%. Take `CCCCN(C)CCCNC(=O)CC1Oc2ccccc2NC1=O` (stereo unspecified): the inhibition was active: 62.5%. For the compound `Cc1cccc(NS(=O)(=O)c2ccc(-n3cccn3)cc2)c1C`, the inhibition is -1.05%.

`Cc1nn(C)c2c1c(C(F)(F)F)cc(=O)n2Cc1cccc(Br)c1`: the inhibition amounted to 2%. With `CC(C)CNc1nc(Oc2ccc(OCC(N)=O)nn2)nc(N2CCOCC2)n1`, the inhibition turned out to be 11.3%. As to `O=S(=O)(Nc1nc2n(n1)C(c1ccc(F)cc1)C=C(c1ccccc1)N2)c1ccc(Cl)cc1` (stereo unspecified), the inhibition is -7.33%.

Take `NC(=O)C1CCN(C(=O)CN2CCc3ccccc32)CC1`: the inhibition is active: 45.3%. `Cc1cccc(N2CCN(C3(c4ccccc4)C(=O)c4ccccc4C3=O)CC2)c1C`: the inhibition is 9.69%. Regarding `Cc1ccc(S(=O)(=O)N2CCOCC2)cc1C(=O)Nc1ccccc1C(=O)O`, the inhibition was -8.36%.

Turning to `O=S(=O)(Nc1ccc2nc(-c3cccc(Cl)c3)oc2c1)c1ccccc1`, the inhibition was -3.46%.

Turning to `Cc1ccc2onc(CC(=O)N(C)c3ccccc3)c2c1`, the inhibition is 20.5%. Take `CCc1ccc(CNC(=O)c2cc(-c3ccc(Br)s3)nc3ccccc23)cc1`: the inhibition was -19.9%. The value for `O=C(Nc1ccccc1)c1cccc(S(=O)(=O)Nc2cccc(F)c2)c1` was -18.8%; that for `COc1cccc(-c2ccc3c(N)c(C(=O)NCc4ccc(Cl)cc4)sc3n2)c1` was -4.14%; that for `CCc1ccc(NC(=O)Cn2c(=O)oc3cc(S(=O)(=O)N4CCCCCC4)ccc32)cc1` was 3.27%. For the compound `CC(C)Sc1ncc(Cl)c(C(=O)Nc2nnc(C(C)C)s2)n1`, the inhibition is -1.96%. Take `COc1cc(C)c(/C=C(\C#N)C(=O)Nc2ccc(C)cc2)cc1C(C)C`: the inhibition is active: 74.7%.

For `CN(C(=O)C(=O)Nc1ccc2nc3n(c(=O)c2c1)CCCCC3)c1cccc(C(F)(F)F)c1`, the inhibition came out at 0.688%. For the compound `COc1ccc(-c2noc(-c3cccnc3NCc3ccco3)n2)cc1`, the inhibition came out at 17.4%. `COc1ccc(O)c(CN2CCN(CCCc3ccccc3)C(CCO)C2)c1` (stereo unspecified): the inhibition was active: 74.8%. The value for `Cc1cccc(-n2c(=O)c3c(c4cc(C)ccc4n3C)n(CC(=O)NCCC3=CCCCC3)c2=O)c1` was -1.53%; that for `CCC1CN(C(=O)N2CCC(C(=O)NCCN(CC)CC)CC2)c2ccccc2O1` (stereo unspecified) was -4.08%; that for `CCOC(=O)CSc1nc2ccccc2c(=O)n1CCc1ccc(OC)c(OC)c1` was 16.1%. Regarding `COc1ccc(-c2onc(C)c2C)cc1S(=O)(=O)NCC1CCN(Cc2ccccc2F)CC1`, the inhibition is -14.3%. For the compound `CCc1cccc(C)c1NC(=O)CSc1nc(C)cc(C)c1C(=O)Nc1ccccc1`, the inhibition was -15%. `CC(=O)Nc1cc(C(=O)NCc2ccc(C)cc2)ccc1Sc1ccc(C)cc1`: the inhibition was -13.3%. Turning to `O=C(CC(c1cccs1)N1Cc2ccccc2C1=O)Nc1ccc(F)c(Cl)c1` (stereo unspecified), the inhibition was -0.402%. For the compound `C=CCC(CC=C)(CNC(=O)C(=O)Nc1cccc(C(F)(F)F)c1)c1ccccc1`, the inhibition was -22.7%.

Take `CCc1ccc(-c2nc(CN3CCCC(C(=O)N4CCN(c5cc(Cl)ccc5C)CC4)C3)c(C)o2)cc1` (stereo unspecified): the inhibition is -8.89%. With `CCOC(=O)c1ccc(N2CCN(c3cccc(Cl)c3)CC2)c(NC(=O)Nc2ccc(OC)cc2OC)c1`, the inhibition turned out to be 0.34%. As for `N#Cc1ccc(Nc2ccccc2)c(N)c1`, the inhibition was active: 30.9%.

Consider `COc1ccc(Cl)cc1NC(=O)CN(C)S(=O)(=O)c1ccc2c(c1)CCCN2C(C)=O`, for which the inhibition was found to be 20.7%.

`O=C(Cn1c(-c2cccs2)cc2cc(Cl)ccc21)N1CCN(c2ccccc2)CC1`: the inhibition came to 5.34%. In the case of `CCc1ccc(NC(=O)c2sc3nc(C)c(Cl)c(C)c3c2N)cc1`, the inhibition is 5.75%.

In the case of `COc1ccc(-c2cccc(NS(=O)(=O)c3cc(C)c(OC)c(C)c3C)c2)nn1`, the inhibition was -1.94%.

On to `CCOc1ccccc1C(=O)N1CC(=O)Nc2ccc(Cl)cc2C1c1ccccc1` (stereo unspecified), for which the inhibition is -17.3%. As to `Cc1ccc(NC(=O)C2CCCN2S(=O)(=O)c2ccc3c(c2)CCCC(=O)N3)cc1C` (stereo unspecified), the inhibition was 10.5%. On to `O=C(CN1CCN(c2ccccc2)CC1)Nc1ccc(Oc2ccccc2)cc1`, for which the inhibition was active: 57.7%. The value for `COc1ccccc1CNC(=O)CSc1ncc2c(n1)-c1ccc(Cl)cc1N(Cc1ccccc1)S2(=O)=O` was 11.9%; that for `COc1ccc(NC(=O)C(c2ccc(C)cc2)N(C)C(=O)Cc2cccs2)cc1` (stereo unspecified) was 3.46%; that for `Clc1ccc(CN2CCC(Cc3ccccc3)CC2)cc1` was active: 48.3%. For `Cc1cccc(-c2nn3c(=O)cc(CN4CCN(S(=O)(=O)c5ccc(Cl)cc5)CC4)nc3s2)c1`, the inhibition was 6.59%. The value for `CCC(C(=O)Nc1ccccc1C(=O)OC)n1nc(C)c2c(C)n(-c3ccc(C)cc3)nc2c1=O` (stereo unspecified) was -10.5%.

Regarding `COc1ccccc1C(=O)OCc1cc(=O)n2nc(C3CC3)sc2n1`, the inhibition was found to be 4.01%. Consider `CC(C)Cn1c(N)c(C(=O)COC(=O)c2c(F)cccc2F)c(=O)n(C)c1=O`, for which the inhibition was active: 45.2%. As to `CCC1CCc2nc3sc(C(=O)Nc4ccc(F)c(Cl)c4)c(N)c3cc2C1` (stereo unspecified), the inhibition was -10.5%.

As to `Cc1ccc(C)c(NC(=O)c2ccc3c(c2)CCN3S(C)(=O)=O)c1`, the inhibition is 20.8%.

As for `Cc1nc(-c2ccc(Cl)cc2)sc1CCNC(=O)c1ccc(C(F)(F)F)cc1`, the inhibition is -2.64%.

With `Cc1ccc(C)c(NC(=O)CCn2nc(C)c3c(C)n(-c4ccccc4)nc3c2=O)c1`, the inhibition was -7.15%. Turning to `O=C(CCn1ccc2cc(S(=O)(=O)N3CCCC3)ccc21)NCc1cccc(F)c1`, the inhibition stood at 4.91%.

For the compound `COC(=O)CSc1nc(-c2ccc(F)cc2)cc(C(F)(F)F)n1`, the inhibition is -16.2%.

For the compound `COc1cc(OC)c(C2Nc3ccccc3-c3nnc(SCc4ccccc4)nc3O2)cc1OC` (stereo unspecified), the inhibition is -20%.

Turning to `COc1ccc(OC)c(C2N=C(N)Nc3nc4ccccc4n32)c1` (stereo unspecified), the inhibition was -25.5%. The figure for `COc1ccc(NC(=O)Cn2c(=O)n(Cc3nc(C)no3)c(=O)c3cc4c(cc32)OCO4)cc1OC` is -4.58%. Take `Cc1cccc(C)c1-n1ncc(C(=O)NCCN2CCOCC2)c1C1CCN(C(=O)OC(C)(C)C)CC1`: the inhibition is -8.4%. For the compound `Cc1ccccc1Cn1c(=O)n(CCc2ccccc2)c(=O)c2c(C)c(C)sc21`, the inhibition was determined as 0.1%. As to `COc1ccc(-c2nc(CN3CCC(C(=O)NCCCOC(C)C)CC3)c(C)o2)cc1OC`, the inhibition was -0.878%.

For `COc1cccc(-n2cc(C(=O)NCc3ccccc3OC)c3ccccc3c2=O)c1`, the inhibition was 15.9%. Consider `CCc1cc2c(cc3c(=O)n(CC(=O)NCCc4ccc(OC)c(OC)c4)ncn32)s1`, for which the inhibition was 6.2%.

`COC(=O)c1cc(S(=O)(=O)NCC2CCN(Cc3cccc(F)c3)CC2)c[nH]1`: the inhibition turned out to be 10%. The figure for `CCCc1cc(C(=O)Nc2c(C)nn(Cc3ccc(C)cc3)c2C)no1` is -2.55%; for `O=C(CCn1c(=O)c2cccn2c2ccc(F)cc21)NCCc1ccccc1` it is 18.3%; for `CCC(=O)N1CCc2cc(CNC(=O)C(CC)c3ccccc3)ccc21` (stereo unspecified) it is -23.4%. For `Cc1ccc(C)c(Nc2cc(C(=O)NC3CCCCC3)c3ccccc3n2)c1`, the inhibition worked out at 1.39%. The figure for `O=C(NCc1ccc(Cl)cc1)C1CCCN(C(=O)c2cnn(-c3ccc(F)cc3)c2-n2cccc2)C1` (stereo unspecified) is 1.35%. On to `Cc1ccc(Nc2c(-c3cc(Br)ccc3F)nc3cc(C)ccn23)cc1`, for which the inhibition came to 0.0339%.

Consider `CCN(CC)S(=O)(=O)c1cc(-c2nnc(Nc3ccc(OC)c(C(N)=O)c3)c3ccccc23)ccc1C`, for which the inhibition was -10.5%. For the compound `Cc1ccc(NC(=O)c2cccc(N3CCCS3(=O)=O)c2)cc1`, the inhibition was -18.5%.

Take `CCOc1ccc(NC(=O)N2CCC(CN3CCc4ccccc4C3)CC2)cc1`: the inhibition amounted to 8.12%. The value for `COc1ccccc1NC(=O)Cn1c(=O)n(-c2ccc(C)cc2)c(=O)c2ccc(C(=O)NCc3ccco3)cc21` was -7.18%.

Turning to `CCOCCCNC(=O)c1ccc(NC(=O)N2CCCCc3ccccc32)cc1`, the inhibition amounted to 15%.

For the compound `Cc1c(NC(=O)c2ccc(Cl)cc2)cc(C(C)C)c(O)c1S(=O)(=O)c1ccc(Cl)cc1`, the inhibition is -2.53%. The value for `COc1ccccc1N1CCN(c2ccc(=O)n(CC(=O)Nc3ccc(F)c(F)c3)n2)CC1` was -13.6%; that for `CCc1cccc(NC(=O)CCc2c(C)nc3c(c2C)c(=O)n(C)c(=O)n3C)c1` was 5.87%.

On to `O=C(NCc1cccnc1)c1nn(-c2ccccc2F)nc1CO`, for which the inhibition is -1.13%. For `Cc1ccc(CNC(=O)CCSCc2ccccc2F)cc1`, the inhibition turned out to be 18.6%. Take `Cc1cc(C)c2oc(C(=O)Nc3sc4c(c3C(=O)NCc3ccco3)CCCC4)cc(=O)c2c1`: the inhibition is -15%.
